Results taken from the supplement of paper PMC3334620.
In all, about 33,000 sequences were measured (“E-score (-0.5 to 0.5)”: median about -0.056, highest 2% from about 0.38 on). The list shows a part of the results.

Target: Stb4 (UniProt P50104)
Assay: PBM E-score (8-mer binding enrichment) (E-score (-0.5 to 0.5)); higher = stronger / more preferred TF binding; most listed sequences are background and not binding sites
Conditions: protein concentration: 200 nM; construct: GST-DNA-binding domain
Summary of the method: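 Universal all-10-mer Agilent arrays, fresh or stripped once, were converted to double-stranded form by primer extension. GST-tagged yeast transcription factors from PURExpress in vitro transcription/translation, full-length or DNA-binding domain only, were applied at about 100-200 nM and detected with fluorescent anti-GST. After masliner normalisation, the Universal PBM Analysis Suite scored each ungapped eight-base word together with its reverse complement by E-score.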

| Sequence | PBM E-score |
| --- | --- |
| GGCATGAA | 0.0361 |
| AATGTAAT | 0.134 |
| AGAACGCC | 0.0271 |
| CCGCGTCC | 0.199 |
| AATGCAAA | 0.0144 |
| GATTAACC | 0.149 |
| GGCATCTA | -0.0394 |
| GGACGTCA | -0.116 |
| ACAAACTA | -0.0819 |
| ATTCTTAG | -0.249 |
| ACACCCTG | -0.146 |
| CCCCCGTC | -0.0446 |
| AATTCTCG | 0.149 |
| AAATGGTA | -0.0634 |
| CTTGATCC | 0.173 |
| AAAATGCC | -0.0192 |
| CCTTAGAA | -0.251 |
| GTTCACAA | -0.0259 |
| ATTGACAC | -0.16 |
| GCTCGCCC | -0.0865 |
| AAATCTGC | -0.227 |
| ACTGATAC | 0.0597 |
| CGGAAGGA | 0.397 |
| ATGGTTCA | -0.0571 |
| GATAACTA | -0.0332 |

| Sequence | PBM E-score |
| --- | --- |
| CTAGCATA | -0.0583 |
| AACCCGTA | 0.0725 |
| AAGGAGTC | -0.12 |
| CTGAGCGC | -0.234 |
| CGTCCGGC | 0.253 |
| CCGGTTCA | 0.151 |
| AAACCGGT | 0.16 |
| GCGGTCCA | -0.104 |
| GAGGTCAA | -0.0297 |
| ATCCAACC | -0.0333 |
| GAAGAGGC | -0.016 |
| AGCGTAGG | -0.0217 |
| GCTGAGAC | -0.0112 |
| GATGCAAA | -0.106 |
| CGAGCTAA | 0.184 |
| AGGCCTAT | -0.218 |
| GCTAATGA | -0.129 |
| AACATCCT | -0.0622 |
| GCTGGAGA | -0.269 |
| GGCGTGAC | -0.156 |
| GATGCCGA | 0.411 |
| ACACTTGC | -0.118 |
| GTATAACA | -0.139 |
| AGACGGCT | 0.125 |
| GCCGGGTA | 0.353 |

| Sequence | PBM E-score |
| --- | --- |
| ATACTCAG | -0.0187 |
| CCATGATA | -0.0894 |
| AGAGACCT | -0.212 |
| GTGCACCA | -0.103 |
| ACATAAGC | -0.126 |
| CATCTAGA | -0.117 |
| ACTTTTAG | -0.087 |
| TGTTAACA | -0.21 |
| GATTCGGA | 0.43 |
| ACGTGTCG | -0.0915 |
| GCTAGGAC | -0.0447 |
| TCCCTCAA | -0.018 |
| GGATATAA | 0.214 |
| CCTACCCA | -0.208 |
| CATTGGCC | -0.132 |
| ATGGTCGC | -0.0565 |
| ACACAGCC | 0.0836 |
| GCTGCGAA | -0.0917 |
| CGACACAA | -0.126 |
| AGATCACT | 0.0171 |
| GGTTCTTA | 0.0492 |
| TACGTCTA | -0.241 |
| CAGATAGC | -0.0171 |
| GGCCGGGA | 0.289 |
| AATCACAT | 0.0658 |

| Sequence | PBM E-score |
| --- | --- |
| AAGTACTT | -0.0255 |
| AGGTCGTC | -0.0455 |
| ACACACAT | -0.0582 |
| GACTCTCA | -0.136 |
| GCCTCGGA | 0.444 |
| CAGTTGAG | -0.309 |
| TTCCAGAA | -0.0529 |
| CTTACCCA | -0.113 |
| AGGATCAG | -0.233 |
| GAGATACA | 0.0353 |
| CTGCAATA | -0.0207 |
| ACTTCAGC | -0.187 |
| GATAGGAA | -0.0175 |
| GGATTACC | 0.208 |
| TGTGACAA | -0.151 |
| AAGCGTGG | -0.0265 |
| AGAACGCT | -0.244 |
| AAGAAATT | 0.151 |
| GACCTACA | -0.127 |
| CCAATACG | -0.0591 |
| GACACGGA | 0.328 |
| AAAGACGT | -0.0958 |
| CATGGTAG | -0.12 |
| GATACAAA | -0.0247 |
| CAGCGGGG | -0.13 |

| Sequence | PBM E-score |
| --- | --- |
| ACAGCAAC | -0.0154 |
| GTTTCCTA | -0.177 |
| ATCCTAAG | -0.239 |
| AAAACGGA | 0.229 |
| CATTGTAC | 0.0212 |
| CGTATCAC | -0.231 |
| GCCTAGTA | -0.0525 |
| AGAGTTAC | -0.165 |
| CATTATAA | 0.0189 |
| GATGGAAC | -0.0089 |
| AATGTTTG | -0.0254 |
| ACAGTTGG | -0.193 |
| AAGCATAG | -0.205 |
| ATTATCGA | -0.195 |
| GGGGTCGA | 0.0254 |
| CATCATAC | -0.166 |
| GACTGAGC | -0.25 |
| ATATCGAG | -0.0124 |
| ACGAAGCA | -0.307 |
| AATGCTCT | -0.155 |
| CCCTCCTA | -0.175 |
| GCAAATAC | -0.0869 |
| GAGGGTCA | -0.152 |
| GTACATGA | -0.123 |
| CACCACGC | -0.217 |

| Sequence | PBM E-score |
| --- | --- |
| CAACGAGG | -0.209 |
| CATAAGCC | 0.053 |
| CTGGCATA | -0.103 |
| TCTAGTCA | -0.0798 |
| CCGCGGTA | 0.294 |
| CAACGAGA | 0.0206 |
| GCTCTTAC | -0.125 |
| TGCTCAAA | 0.0404 |
| ACCGATTG | 0.0598 |
| TAGACAGA | -0.179 |
| AACATGCT | -0.052 |
| GTAACGAA | -0.0433 |
| CAATATTG | -0.381 |
| AGATTCAA | 0.0199 |
| CGGGGCCC | 0.159 |
| AATTGTCA | -0.179 |
| CCCATACG | -0.108 |
| CGTATGCA | -0.0792 |
| AAAAGAGT | -0.059 |
| AGAGAGGC | -0.218 |
| CAGCCAGA | 0.0384 |
| GAAAGCTC | -0.115 |
| AGAGCTCA | -0.238 |
| ACCTCATA | -0.129 |
| ATGTGTAG | 0.114 |

| Sequence | PBM E-score |
| --- | --- |
| CTCGTGTA | -0.0131 |
| GCGATCGC | -0.0276 |
| GGAGGTAA | 0.00055 |
| CGGTCCTC | 0.106 |
| CAGGTGAC | -0.223 |
| GGTCATGA | -0.153 |
| CGAAACTA | 0.165 |
| CCTCGCGC | -0.0639 |
| AGTGCAAT | -0.18 |
| ATCTAGAG | -0.189 |
| ATCTATGA | -0.0937 |
| AGGCCCCG | 0.068 |
| CCTAGACA | -0.217 |
| CTCATAAA | -0.0904 |
| ATACCTGA | -0.104 |
| CGATTTGC | 0.173 |
| GATTACAA | 0.00563 |
| GGGACAGA | -0.0148 |
| ATTGGTCG | -0.0654 |
| TCAAGCGA | -0.179 |
| CGCGACGC | 0.00739 |
| CGTACTCA | -0.1 |
